From PMC12136788
The other results are listed elsewhere or left out.

T1: UNK ZnF1-3 (human, UniProt Q9C0B0 31-174)
T1 sequence: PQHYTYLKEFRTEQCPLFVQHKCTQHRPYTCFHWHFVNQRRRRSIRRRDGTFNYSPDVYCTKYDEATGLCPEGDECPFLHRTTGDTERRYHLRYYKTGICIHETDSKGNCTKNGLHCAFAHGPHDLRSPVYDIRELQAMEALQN

B1: 15614301_15614421_1454_CDS_ENSG00000151779_ENST00000281513|human|control|control (ssRNA)
RNA: GGGAGUUCUACAGUCCGACGAUCCACCAAGUAAAGGCCCUGUUUUAUAUAACCAAAGUAGCGAGCCUUGGCAGAUAUUUCAUAAUCAGAAUCAGAAUCCUCUUCUCCUUCAUCUUCUUCUCCAGCUCUAGUCUCCAAACGAGACAACAGAGGAUUGAGCAUCA
B2: 11073862_11073982_252_CDS_ENSG00000120948_ENST00000240185|human|control|control (ssRNA)
RNA: GGGAGUUCUACAGUCCGACGAUCAGCAUCUGGGGCAUGCAGAAUUCCUUCUACCAGCCGGACACCUCUCAUACACUGAGACACUGGAUUCCUGUAGCGAAGCCCACACGCCCCUGGAAACUGGGCUGUAACCGUGGAGAGCAGCAACAGAGGAUUGAGCAUCA
B3: chrX:20248820:20248821:+_ENSMUSG00000001924_ENSMUST00000001989|mus_mus|mus_mus_mus_hu_True|48_68 (ssRNA)
RNA: GGGAGUUCUACAGUCCGACGAUCGGCGAAGUCCGUCACCACAAAGUCAGGUUCUGCCAGUGAGGCCGGCAAGGAUUUAAAGCUAAUCUUUUUCGGUACUUUGACCUGACUGACGAUGCCUCCACGGAUGUAGUCGGAGAAGUUCAACAGAGGAUUGAGCAUCA
B4: 105546219_105551056_2895_CDS_ENSG00000136051_ENST00000332180|human|control|control (ssRNA)
RNA: GGGAGUUCUACAGUCCGACGAUCUAGUUCUUCAAAAUUUACAAUAUCUUCAAGAUCAGGAACAAAUCUAAUGGCAUUGCUGCUACAAUGAAGACCACCAGAUCUUAUCAUUCGUACAUAGCCCAUAGCAUUACCAAUCUGGCUCAACAGAGGAUUGAGCAUCA
B5: 108138349_108140082_1765_CDS_ENSG00000110851_ENST00000228437|human|control|control (ssRNA)
RNA: GGGAGUUCUACAGUCCGACGAUCCCAUUCUGCUACUUCCAUGGAGUGACUCUGCUGGCCAAUUAGAGGUCCAAAGCAAGUCCGCACAGGAAUGGUUUCUCCAGUCCAUACACCAACUUCUGCUCCCACAAUUGACUGACGGAGCAACAGAGGAUUGAGCAUCA
B6: chr8:104447970:104447971:+_ENSG00000164934_ENST00000297579|hu_hu|hu_hu_hu_mus_False|98_98 (ssRNA)
RNA: GGGAGUUCUACAGUCCGACGAUCAUACACUUCCCUGCUUCGACUUUUGUCCACAGGAAAGAUUCUAAUAGACUUAUCAAAGCUGGCAGACACAAAUUCCUUCCCAGUGGGAGAGUAGUCCACAUCAAGUACUGCAGACACGUGCAACAGAGGAUUGAGCAUCA
B7: chr3:179287964:179287965:+_ENSG00000136518_ENST00000429709|hu_hu|hu_hu_hu_mus_True|28_108 (ssRNA)
RNA: GGGAGUUCUACAGUCCGACGAUCCUUUAGAGGUGAAAUGGCCUCCAUGUUCUCCCUGGGCACGCGGAGGGCAUUGGUGUCUAUGUAGUAGGUGGGCCCGCCCUGCUUGCCUUUAUCACCAUCAAUCUCCAUCAUUGUACUUCCCAACAGAGGAUUGAGCAUCA
B8: chr9:108650075:108650076:+_ENSMUSG00000032601_ENSMUST00000035220|mus_mus|motif|central (ssRNA)
RNA: GGGAGUUCUACAGUCCGACGAUCAGCAAUUUGUUUAUGUAAACAGCACAGAGGUUAAACAAAACAAAACAAAACAAAAACCGGCGGAAUACAAACAACAAAAACCCUAACCCAGAUAACCUUUCCUGGCUACUACUGGAAAGACAACAGAGGAUUGAGCAUCA
B9: 19555051_19555939_504_CDS_ENSG00000072210_ENST00000579855|human|control|control (ssRNA)
RNA: GGGAGUUCUACAGUCCGACGAUCUAAAUACUGAGGGAGAAGCUUUGCCAAGAUCUUGGCUGUAUUUUCACUCAGUUCAGAAGGCUUUAUAAUCACAGCAUUUCCUGCAGCGAUGGCUCCUAUCAGUGGCUGAAUGGUGAGAACCAACAGAGGAUUGAGCAUCA
B10: 160781851_160782804_7212_CDS_ENSMUSG00000057133_ENSMUST00000039782|mouse|control|control (ssRNA)
RNA: GGGAGUUCUACAGUCCGACGAUCCCUCUCUUCUCCACCUAGAGAGCUGAUGUCUAAUUUUCCAGGUUCUUUGCAGCGUGGUCUCCUCUGCUUGGGUUUGUCUGAAAAACUUGUCCCAAAGCCAGGAACAUCCAAAGAGUAGUCCAACAGAGGAUUGAGCAUCA
B11: chr18:52893488:52893489:-_ENSG00000196628_ENST00000354452|hu_hu|hu_hu_hu_mus_True|18_48 (ssRNA)
RNA: GGGAGUUCUACAGUCCGACGAUCUAUUUAGACCAUUUCCGCGGAGUUAUGGCAUUUACUCAGUGCUGAUAGGUGGAAAAACUACUUGAACAGGGAUUUUUUUUUUCCUUAAUACAUGCCAAGAAUUUGUGGCUGUCAAAACAGCAACAGAGGAUUGAGCAUCA
B12: chr2:15737528:15737529:+_ENSG00000079785_ENST00000233084|hu_mus|motif|central (ssRNA)
RNA: GGGAGUUCUACAGUCCGACGAUCUUUAAUAGUUGUUUUCCCUUUCUUUCCUUCCUGUUGGUCUUUCAGAGUUUCAUACACGGUCUGGAUAACGGGAAUACUAAAUGCACCAGUUUUUCCACUUCCUGUUUCUGCAGCCAUGAGCAACAGAGGAUUGAGCAUCA
B13: chr14:78183846:78183847:+_ENSG00000119705_ENST00000557342|hu_hu|hu_hu_hu_mus_False|28_28 (ssRNA)
RNA: GGGAGUUCUACAGUCCGACGAUCUCUCAGAAAUCUUUCUUCAUCAGAUGUUUGAGCUCCGUGCAAAGCCUUUGCUCUUUGAGCUUGAACGUGGAUCUAUGGGAGGGCUAUAAUAUGCAGAAAAGGUAAUUUUUUUUUUAAAGACAACAGAGGAUUGAGCAUCA
B14: chr12:70442348:70442349:-_ENSMUSG00000020982_ENSMUST00000021368|mus_mus|motif|central (ssRNA)
RNA: GGGAGUUCUACAGUCCGACGAUCAACCGGGUCUCCUUGAGCUUGAGCUUCUUUCACAAUCACUCCGAUUUCUGUCCAGUCGGUCUGGUUGGCCAACGCACUUCGGACUACCUGAAUGGCUCUGUCCACUAUCUGCAGGUUCAUCAACAGAGGAUUGAGCAUCA
B15: chr9:91931296:91931297:+_ENSG00000123975_ENST00000314355|hu_mus|motif|central (ssRNA)
RNA: GGGAGUUCUACAGUCCGACGAUCAGAUUAGAUGAUCCCAGCUGCACUUCAUUUUUGUUGUUCUUUUGGAAGAGGUCGUCGGAAGAGAAGAAUAUGCGGUUCUGGCUCAUGAAUCAUGUAAUGAACCCAUCCUAGACUCUGUUGCAACAGAGGAUUGAGCAUCA
B16: chr19:53463844:53463845:-_ENSMUSG00000025024_ENSMUST00000025997|mus_mus|motif|central (ssRNA)
RNA: GGGAGUUCUACAGUCCGACGAUCUCAUUUUCUCCAUUUCCAGAAAGGGCAGCUUCUACUUGCUGGAGUUGAGCUUUGUAGCGGGCCAACUGUUUUGCUAGAUCCUCUGACAUCUUGGGUGGGGCUGGGGUCGGGACGGCGGGCCAACAGAGGAUUGAGCAUCA
B17: chr1:224585847:224585848:-_ENSG00000162923_ENST00000295024|hu_hu|motif|central (ssRNA)
RNA: GGGAGUUCUACAGUCCGACGAUCUCCAAAACAUGAAUGAAUUGUAUAAAACCCUUGUGUAACACCUUGAUACUUUCUUACGGAAACUCUGUCUUGCAAGUCCCAUAAAUGAACUCCCUGAGUUGCUACAUUUAACAAAGCUAACAACAGAGGAUUGAGCAUCA
B18: chr1:8022837:8022838:+_ENSG00000116288_ENST00000493373|hu_mus|FALSE|FALSE (ssRNA)
RNA: GGGAGUUCUACAGUCCGACGAUCUCUCCUCUGCUCCUUUGGCCAGGAUGACCAGAGCUCUUUUGGAAGCCAUUUCUAUUUCUUAAAGACUGCAGCCGCGCCUCCUCCACCCACGCGAAGCCACCGCUAGUCCGCAGGAACCUCCAACAGAGGAUUGAGCAUCA
B19: 54680009_54683376_185_CDS_ENSMUSG00000020267_ENSMUST00000020504|mouse|control|control (ssRNA)
RNA: GGGAGUUCUACAGUCCGACGAUCAGGGGAAAUGUCAUGAAAAGCAAGACACCGGUCGUCCUCGAAGAUGAUCUUGGCGGGGAUUUCUUUGCGGAUGAUCUUGCCGAAGAUCGUGUCGCCGCCGGGCUGGGCCACUUGAGCCUUCAACAGAGGAUUGAGCAUCA
B20: chr11:77843920:77843921:+_ENSMUSG00000037791_ENSMUST00000049167|mus_hu|FALSE|FALSE (ssRNA)
RNA: GGGAGUUCUACAGUCCGACGAUCUUUUUUAUAUACAGAAUACAGGAAAGUUUCUGUAAAGUCUAAAACAUUACAAUUACUAUGUACAUUGGUACUGGUUGUGGGGGUGGGAGGAGAGGAGGGAACCAGGGGCAGGAGGAAGAGCAACAGAGGAUUGAGCAUCA
B21: 88696006_88696476_2492_CDS_ENSMUSG00000018428_ENSMUST00000018572|mouse|control|control (ssRNA)
RNA: GGGAGUUCUACAGUCCGACGAUCUUCUGCUCCUUGGAAUGGCAGGGUCACAAAGUCAGACCUAAUUUGCCGGAGCACGUCGACUUUCACUCUCUUAUAUCCACCAUAGUCCACGUAGCGAAUCUCCACCUCAUUGGUCUCCUCCAACAGAGGAUUGAGCAUCA
B22: chr1:39494564:39494565:+_ENSG00000168653_ENST00000372967|hu_hu|hu_hu_hu_mus_True|1_48 (ssRNA)
RNA: GGGAGUUCUACAGUCCGACGAUCAUGCAUUCGCCUCAUCGUUUUGUACCGAAGCAAGCACUCUUCGAAGUCAUCGAACUCUAUCUUGCACUCUUUCUUCGCCCGGGUCCCACCGAUCCCGUGUGCACACUCUAUCCAUUCUUUCAACAGAGGAUUGAGCAUCA

What follows are binders tested against T1, UNK ZnF1-3 (assay: nsRBNS (natural sequence RNA bind-n-seq); RBNS binding buffer (assumed for nsRBNS): 25 mM Tris pH 7.5, 150 mM KCl, 3 mM MgCl2, 0.01% Triton X-100, 500 ug/ml BSA, 20 U/ml SUPERase-In, 4 C; UNK is unkempt and MSI1 is Musashi-1; names of the RNAs are library labels; protein concentration not given here; high values mean tight binding).
Work on B1 yielded a binding signal of 1.04 enrichment R.
Work on B2 yielded a binding signal of 1.2 enrichment R.
B3 gave a binding signal of 0.714 enrichment R.
For B4, the binding signal was 1.27 enrichment R.
B5 showed a binding signal of 1.15 enrichment R.
B6 was tested, and the binding signal was 0.994 enrichment R.
Binder B7 has a binding signal of 0.788 enrichment R.
With B8 the binding signal was 3.18 enrichment R.
With B9 the binding signal was 0.9 enrichment R.
In the case of B10, the binding signal is reported as 0.941 enrichment R.
In the case of B11, the binding signal is reported as 0.814 enrichment R.
In the case of B12, the binding signal is reported as 0.606 enrichment R.
B13 gave a binding signal of 1.54 enrichment R.
Work on B14 yielded a binding signal of 0.817 enrichment R.
B15 showed a binding signal of 1.17 enrichment R.
Work on B16 yielded a binding signal of 1.15 enrichment R.
B17 was tested, and the binding signal was 0.918 enrichment R.
B18 was tested, and the binding signal was 0.889 enrichment R.
For B19, the binding signal was 0.716 enrichment R.
With B20 the binding signal was 2.1 enrichment R.
B21 gave a binding signal of 0.816 enrichment R.
In the case of B22, the binding signal is reported as 0.697 enrichment R.
